Measured values published in the supplement of paper PMC4604168 (melanoma cell lines).
This is one part of the list. Most values come without repeats; read them as rough.

Tested on: SkMel5
Assay: cell count relative to DMSO control; melanoma cells; higher = more viable cells
Conditions: library dose: standard library concentration; 72 h
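Note: cells treated in 1,536-well plates, then fixed and DAPI-stained, with nuclei counted from automated high-throughput microscope images.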

Row | SMILES | cell count [%]
1 | OCc1c[nH]c2ccccc12 [Indole-3-carbinol] + CC1(C)NC(=O)N(c2ccc([N+](=O)[O-])c(C(F)(F)F)c2)C1=O [nilutamide] (first compound 4 µM, partner dose 5 µM) | 107
2 | OCc1c[nH]c2ccccc12 [Indole-3-carbinol] + CN(NC(=O)CC(=O)NN(C)C(=S)c1ccccc1)C(=S)c1ccccc1 [STA4783] (first compound 4 µM, partner dose 0.03 µM) | 62.7
3 | Clc1ccc(Nc2nnc(Cc3ccncc3)c3ccccc23)cc1 [vatalanib] + Cc1cc(N2CCOCC2)cc2[nH]c(-c3c(NC[C@@H](O)c4cccc(Cl)c4)cc[nH]c3=O)nc12 [BMS536924] (first compound 10 µM, partner dose 1 µM) | 77.1
4 | O=C(CCCCCCC(=O)Nc1ccccc1)NO [vorinostat] + O=C(O)C(=O)Nc1sc2c(c1C(=O)O)CCNC2 [TCS401] (first compound 0.4 µM, partner dose 8.33333 µM) | 71.7
5 | Nc1cccc2c1CN(C1CCC(=O)NC1=O)C2=O (centres undefined) [lenalidomide] + CN(C)S(=O)(=O)c1ccc2c(c1)/C(=C/c1cc3c([nH]1)CCCC3)C(=O)N2 [SU6656] (first compound 5 µM, partner dose 2 µM) | 94.2
6 | Nc1cccc2c1CN(C1CCC(=O)NC1=O)C2=O (centres undefined) [lenalidomide] + COC(=O)c1sccc1S(=O)(=O)Nc1ccc(Nc2ccccc2)cc1OC [GSK0660] (first compound 5 µM, partner dose 5 µM) | 72.9
7 | Nc1cccc2c1CN(C1CCC(=O)NC1=O)C2=O (centres undefined) [lenalidomide] + N#Cc1c(O)c2c(-c3ccc(-c4ccccc4O)cc3)csc2[nH]c1=O [A769662] (first compound 5 µM, partner dose 10 µM) | 102
8 | COCC[n+]1c2c(n(Cc3cnccn3)c1C)C(=O)c1ccccc1C2=O + COc1ccc(COc2ccc(Cc3cnc(N)nc3N)cc2OC)cc1 [GW2580] (first compound 0.002 µM, partner dose 5 µM) | 75.7
9 | Cn1c(Nc2ccc(C(F)(F)F)cc2)nc2cc(Oc3ccnc(-c4ncc(C(F)(F)F)[nH]4)c3)ccc21 + Cc1cc(N2CCOCC2)cc2[nH]c(-c3c(NC[C@@H](O)c4cccc(Cl)c4)cc[nH]c3=O)nc12 [BMS536924] (first compound 0.4 µM, partner dose 1 µM) | 35.5
10 | COCC[n+]1c2c(n(Cc3cnccn3)c1C)C(=O)c1ccccc1C2=O + Oc1cc(-c2nc(-c3ccccc3)[nH]c2-c2ccncc2)ccc1Cl [L779450] (first compound 0.002 µM, partner dose 1 µM) | 37.8
11 | C#Cc1cccc(Nc2ncnc3cc(OCCOC)c(OCCOC)cc23)c1 [erlotinib] + O=C1NC(=O)/C(=C/c2ccc(-c3ccc(F)cc3O)o2)S1 [AS252424] (first compound 4 µM, partner dose 5 µM) | 58.6
12 | Cn1c(Nc2ccc(C(F)(F)F)cc2)nc2cc(Oc3ccnc(-c4ncc(C(F)(F)F)[nH]4)c3)ccc21 + NCC(=O)Nc1ccc(-n2nc(C(F)(F)F)cc2-c2ccc3c(ccc4ccccc43)c2)cc1 [OSU03012] (first compound 0.4 µM, partner dose 5 µM) | 26.1
13 | C#Cc1cccc(Nc2ncnc3cc(OCCOC)c(OCCOC)cc23)c1 [erlotinib] + COc1ccc2c(c1)CCC1C2CCC2(C)C(NCCCCCCN3C(=O)C=CC3=O)CCC12 [U73122] (first compound 4 µM, partner dose 2 µM) | 61
14 | Clc1ccc(Nc2nnc(Cc3ccncc3)c3ccccc23)cc1 [vatalanib] + OCCn1cc(-c2cnc3nnn(Cc4ccc5ncccc5c4)c3n2)cn1 [PF04217903] (first compound 10 µM, partner dose 5 µM) | 60.2
15 | Nc1cccc2c1CN(C1CCC(=O)NC1=O)C2=O (centres undefined) [lenalidomide] + COc1ccc(-c2ccc3c(N4CCOCC4)nc(N4C[C@@H](C)O[C@@H](C)C4)nc3n2)cc1CO [KU0063794] (first compound 5 µM, partner dose 0.1 µM) | 47.8
16 | O=C(CCCCCCC(=O)Nc1ccccc1)NO [vorinostat] + C[C@@H]1CCN(C(=O)CC#N)C[C@@H]1N(C)c1ncnc2[nH]ccc12 [CP690550] (first compound 0.4 µM, partner dose 5 µM) | 82
17 | COCC[n+]1c2c(n(Cc3cnccn3)c1C)C(=O)c1ccccc1C2=O + N#Cc1c(O)c2c(-c3ccc(-c4ccccc4O)cc3)csc2[nH]c1=O [A769662] (first compound 0.002 µM, partner dose 10 µM) | 58
18 | Nc1cccc2c1CN(C1CCC(=O)NC1=O)C2=O (centres undefined) [lenalidomide] + O=C(Nc1ccccc1)c1cc([N+](=O)[O-])ccc1Cl [GW9662] (first compound 5 µM, partner dose 10 µM) | 93
19 | O=C(CCCCCCC(=O)Nc1ccccc1)NO [vorinostat] + CC(C)CCN1c2nc(Nc3cc(F)c(O)c(F)c3)ncc2N(C)C(=O)C1C [BID1870] (first compound 0.4 µM, partner dose 1 µM) | 70.1
20 | OCc1c[nH]c2ccccc12 [Indole-3-carbinol] + COCC[n+]1c2c(n(Cc3cnccn3)c1C)C(=O)c1ccccc1C2=O [YM155] (first compound 4 µM, partner dose 0.002 µM) | 57.5
21 | COCC[n+]1c2c(n(Cc3cnccn3)c1C)C(=O)c1ccccc1C2=O + O=c1cc(-c2cccc3c2Sc2ccccc2S3)oc(N2CCOCC2)c1 [KU55933] (first compound 0.002 µM, partner dose 5 µM) | 30.5
22 | Nc1cccc2c1CN(C1CCC(=O)NC1=O)C2=O (centres undefined) [lenalidomide] + O=C(CCCCCCC(=O)Nc1ccccc1)NO [vorinostat] (first compound 5 µM, partner dose 0.4 µM) | 60.4
23 | OCc1c[nH]c2ccccc12 [Indole-3-carbinol] + Cc1cc(N2CCOCC2)cc2[nH]c(-c3c(NC[C@@H](O)c4cccc(Cl)c4)cc[nH]c3=O)nc12 [BMS536924] (first compound 4 µM, partner dose 1 µM) | 64.2
24 | Clc1ccc(Nc2nnc(Cc3ccncc3)c3ccccc23)cc1 [vatalanib] + NC(=O)Nc1cc(-c2cccc(F)c2)sc1C(=O)N[C@H]1CCCNC1 [AZD7762] (first compound 10 µM, partner dose 0.1 µM) | 66.1
